Data on 172 sequences can be found in paper PMC4242493.

This is one part of the list. The list includes weakly bound sequences.

The target of the test is MaxL homodimer (UniProt P61244). In words: universal protein-binding microarray (PBM). To be noted: PBS-based mixture, 10 nM His-tagged protein dimer, 2% milk, 200 ng/uL BSA, 50 ng/uL salmon testes DNA, 0.02% TX-100; detection with Alexa 488 anti-His …; high values mean tight binding; most listed sequences are background and not binding sites; double strand, one strand shown.
UniProt P61244, sequence (P61244 whole entry): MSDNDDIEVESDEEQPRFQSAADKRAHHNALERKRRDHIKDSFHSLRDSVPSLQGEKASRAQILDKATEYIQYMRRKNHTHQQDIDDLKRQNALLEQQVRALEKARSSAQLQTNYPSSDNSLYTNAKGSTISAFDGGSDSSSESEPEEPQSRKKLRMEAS
On to GGTTGAGA, for which the binding signal (normalized occupancy) is 0.0711.

Take CCGGAGAC: the binding signal (normalized occupancy) came out at 0.0732. The same measure for CCCTAAAG: 0.0716; for ATTCCACA: 0.0794.

In the case of AACTTGGT, the binding signal (normalized occupancy) was 0.0721.

Take AAGCCCTT: the binding signal (normalized occupancy) came out at 0.0701. The same measure for GGGACAAC: 0.0753; for CCGGCAGA: 0.0655.

Turning to CGTTCCAG, the binding signal (normalized occupancy) was 0.0685. The same measure for CCGATTGA: 0.0737. The same measure for CTTTTAAA: 0.0734; for GGTCAACC: 0.0682; for TGGTTACA: 0.0825.

Regarding GTCGCACA, the binding signal (normalized occupancy) was 0.0775. As to ATGCTAGC, the binding signal (normalized occupancy) came out at 0.0843. The same measure for ACGCAGTC: 0.0707; for CCACGAAC: 0.0761. The same measure for CGACCTAA: 0.0709; for AAACAGTC: 0.0722; for AACCAACA: 0.07.

For CGTTTTAA, the binding signal (normalized occupancy) was 0.0707. As to ATCAACAA, the binding signal (normalized occupancy) was 0.0796.

On to GTGATTTA, for which the binding signal (normalized occupancy) amounted to 0.0772. The same measure for ACCACGCG: 0.187; for GACTCCGC: 0.0741.

Turning to CTAGGCCC, the binding signal (normalized occupancy) came to 0.0764.

As for ATCCCAGC, the binding signal (normalized occupancy) was found to be 0.0757. Regarding ATAGGCCC, the binding signal (normalized occupancy) was 0.0766. In the case of ACTTGCCG, the binding signal (normalized occupancy) came to 0.0742. On to AAGCCTAA, for which the binding signal (normalized occupancy) is 0.0724. As for ATGTGAAC, the binding signal (normalized occupancy) was 0.0883. For GCCGGCCC, the binding signal (normalized occupancy) worked out at 0.0678.

As for CCCCCCCC, the binding signal (normalized occupancy) worked out at 0.0924. The same measure for ATACGAAC: 0.0781.

Take AAGAAGCA: the binding signal (normalized occupancy) worked out at 0.0757. Consider ACTCGGTA, for which the binding signal (normalized occupancy) turned out to be 0.0735. GACGCGTC: the binding signal (normalized occupancy) was 0.0757. CCTGAAAC: the binding signal (normalized occupancy) was 0.0731.

On to ACGGTATA, for which the binding signal (normalized occupancy) was 0.0777.

In the case of AGTCACGA, the binding signal (normalized occupancy) was 0.0912. Regarding AAGCGGAC, the binding signal (normalized occupancy) came out at 0.0691. The same measure for CTGCCCAA: 0.0752; for ATTCGCCG: 0.0715. For the sequence CGTCCTAG, the binding signal (normalized occupancy) is 0.0707. Take CTTTGTGC: the binding signal (normalized occupancy) was found to be 0.0748.

As to CGCTGCAG, the binding signal (normalized occupancy) turned out to be 0.0694.

Consider CAAGCGTC, for which the binding signal (normalized occupancy) stood at 0.0702. The same measure for CTCCTGTC: 0.0719; for TACTGAGA: 0.0751. The same measure for AGTGGCCG: 0.072; for ATATAGAA: 0.0868. The same measure for CATCGTCA: 0.0757; for AACTAAGA: 0.0758; for GCCGATGA: 0.0713. As to GCACGGGC, the binding signal (normalized occupancy) amounted to 0.0761. The same measure for CGCTTGGA: 0.0727; for GAACACTA: 0.0739; for AATAATCT: 0.0762. The same measure for GATACGAC: 0.0742; for CAGGTCAC: 0.0772; for AAAACGAA: 0.0697. The same measure for ATAAGTAG: 0.0743; for CATCGTGC: 0.0886; for GCGACCCA: 0.0734. Take ATTCTCAG: the binding signal (normalized occupancy) turned out to be 0.0751. ACCTTAAA: the binding signal (normalized occupancy) amounted to 0.0726. As for CGCTTAAC, the binding signal (normalized occupancy) worked out at 0.0754.

On to ACGTTTGC, for which the binding signal (normalized occupancy) turned out to be 0.0802. The same measure for ACGTAACT: 0.0731. The same measure for CCGAGTAC: 0.0694; for GTCCCATA: 0.0779; for CCTGTTCA: 0.0778.

For GTTGTGAA, the binding signal (normalized occupancy) amounted to 0.0763. Consider TCTGATCA, for which the binding signal (normalized occupancy) turned out to be 0.0721.

Take GTGCCAAA: the binding signal (normalized occupancy) came to 0.0704. The same measure for AGGTGTGG: 0.0847; for GGGTCTAC: 0.0725; for CATTCTGA: 0.076. The same measure for GTAGGTTA: 0.0763. The same measure for GACCGCAC: 0.0744. On to GGTTTTGA, for which the binding signal (normalized occupancy) is 0.0713. Consider CCAGCCCG, for which the binding signal (normalized occupancy) stood at 0.073. The same measure for ATCGATGA: 0.0821; for CGGCACTA: 0.0762; for TGAGTTAA: 0.078. For the sequence AGTGCGTG, the binding signal (normalized occupancy) is 0.0902. The same measure for CCCACGGG: 0.0859; for CAAAGGCA: 0.0733; for ACGTGGGG: 0.0991. For the sequence ACCAGACT, the binding signal (normalized occupancy) is 0.0722. For AATAGTAG, the binding signal (normalized occupancy) was determined as 0.0778. The same measure for CACGTCTG: 0.0814; for CTTAAGTA: 0.0743.

With ACCCATCA, the binding signal (normalized occupancy) is 0.0855. The same measure for GAAACAGC: 0.0718. The same measure for CACCATGG: 0.0885. Take AGTCTCAT: the binding signal (normalized occupancy) amounted to 0.0794.

Regarding AAAAGTTG, the binding signal (normalized occupancy) was 0.0714.

With AGCGGATG, the binding signal (normalized occupancy) is 0.0709. As to AGTTACCC, the binding signal (normalized occupancy) came out at 0.0762.

In the case of AGGGATTG, the binding signal (normalized occupancy) was 0.0729. The same measure for ATTGAACG: 0.082. Regarding TGGCGCAA, the binding signal (normalized occupancy) amounted to 0.0726. The same measure for AGTGTCGG: 0.0693; for CAGGTCGC: 0.0697; for ATAATATC: 0.0827. Regarding GGCTACCC, the binding signal (normalized occupancy) worked out at 0.0734.

Turning to CTGTTAGC, the binding signal (normalized occupancy) turned out to be 0.074. The same measure for CCAGCGCC: 0.0674; for ATTGAACC: 0.0786. The same measure for ACAATACC: 0.0816; for ACAGCCCC: 0.0797; for GGTTAAAC: 0.0713. With AGACTCCA, the binding signal (normalized occupancy) was found to be 0.0712. The same measure for AGCTGATG: 0.0705; for ACTCGTGA: 0.0957; for TATGTGCA: 0.084.

Regarding CAATCTGC, the binding signal (normalized occupancy) was 0.0729. Consider AGGGTAAC, for which the binding signal (normalized occupancy) stood at 0.0773. Turning to AGTCTAAA, the binding signal (normalized occupancy) is 0.0732. Take TACTAGCA: the binding signal (normalized occupancy) was 0.079. Regarding ATTTCCGA, the binding signal (normalized occupancy) worked out at 0.07.

In the case of ATGCTCAA, the binding signal (normalized occupancy) was 0.082. The same measure for AGAGACAA: 0.0698. The same measure for TCTGGTAA: 0.0774; for CAGATAAA: 0.078. The same measure for AATCCCTA: 0.0775; for CTAGATAG: 0.0728. Turning to CCAGTTGA, the binding signal (normalized occupancy) is 0.0724. Turning to ACAGGCCT, the binding signal (normalized occupancy) was 0.0719.

With CCGATAGA, the binding signal (normalized occupancy) worked out at 0.0736. CAACCGAC: the binding signal (normalized occupancy) worked out at 0.0749. The same measure for AACAGCCA: 0.0773. The same measure for CGCGGCAA: 0.0707; for TGCATCAA: 0.0818. The same measure for GCTCCTAC: 0.0742; for CCTGTTGA: 0.0694; for TACTAGAA: 0.0774. For TAAGACAA, the binding signal (normalized occupancy) is 0.0799.

As to GCATGAAA, the binding signal (normalized occupancy) was determined as 0.0848. The same measure for GGAGCCAC: 0.0768; for GACATGGA: 0.0844.

In the case of GGGCGGAA, the binding signal (normalized occupancy) was 0.0682. On to TTTGCAAA, for which the binding signal (normalized occupancy) is 0.0763.

With CCGGTCCC, the binding signal (normalized occupancy) turned out to be 0.0695. Take AGCCCCTC: the binding signal (normalized occupancy) was 0.074. For GAGGGGAC, the binding signal (normalized occupancy) came to 0.0738. In the case of AGCTCAAT, the binding signal (normalized occupancy) stood at 0.0681. The same measure for TCTCTGCA: 0.0724; for AATCCGGG: 0.0707; for AATCACTG: 0.0742. For CGTGATCC, the binding signal (normalized occupancy) worked out at 0.0811. With TCAAGGGA, the binding signal (normalized occupancy) amounted to 0.0725.

On to CCATCGTC, for which the binding signal (normalized occupancy) was 0.0723. ATAGGACG: the binding signal (normalized occupancy) was determined as 0.0815. In the case of CTGGAATC, the binding signal (normalized occupancy) was 0.0758. With AACTCACG, the binding signal (normalized occupancy) was 0.0819. The same measure for ATAACCGA: 0.0748. CGTGCGAG: the binding signal (normalized occupancy) is 0.0834. The same measure for GGCAAATA: 0.08; for CTAAGCGA: 0.0687. The same measure for CGTTCGTA: 0.0781; for ATCCATTA: 0.0784; for GATCTCCA: 0.0768. The same measure for ATGTGAAT: 0.0967; for GGGCGTCA: 0.0752; for GCTATTGA: 0.0773.

Consider GAAGCCTC, for which the binding signal (normalized occupancy) is 0.0702.

ACAGCGTG: the binding signal (normalized occupancy) amounted to 0.123.

Regarding ACCACCAT, the binding signal (normalized occupancy) was determined as 0.0825.

For ATTGATAC, the binding signal (normalized occupancy) is 0.0773. The same measure for GAGGCATA: 0.0744.
